Results: the supplement of paper PMC8728848
This is one part of the list.

Experiments:
Experiment in all cases: glycan array binding signal (z-score within array); higher = stronger binding
Settings in all cases: glycan notation: IUPAC condensed, linker removed
[1] = molecular target: Gal(a1-6)Glc
Summary of the method: (§1)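 Glycan array data came from 3228 arrays in the Consortium for Functional Glycomics database, and only arrays with an available protein sequence were kept. Glycan names were put into IUPAC-condensed notation, and columns mapping to the same glycan were averaged. The binding signal is a within-array Z-score, averaged across arrays of one protein sequence run at different concentrations or buffers and across linkers. A negative Z-score can be read as non-binding.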

[2] = molecular target: Gal(b1-2)Gal
Summary of the method: as §1

[3] = molecular target: Gal(b1-3)Gal
Summary of the method: as §1

[4] = molecular target: Gal(b1-3)Gal(b1-4)GlcNAc
Summary of the method: as §1

[5] = molecular target: Gal(b1-3)GalNAc
Summary of the method: as §1

[6] = molecular target: Gal(b1-3)GalNAc(a1-3)[Fuc(a1-2)]Gal(b1-4)Glc
Summary of the method: as §1

[7] = molecular target: Gal(b1-3)GalNAc(a1-3)[Fuc(a1-2)]Gal(b1-4)GlcNAc
Summary of the method: as §1

[8] = molecular target: Gal(b1-3)GalNAc(b1-3)Gal
Summary of the method: as §1

[9] = molecular target: Gal(b1-3)GalNAc(b1-3)Gal(a1-4)Gal(b1-4)Glc
Summary of the method: as §1

[10] = molecular target: Gal(b1-3)GalNAc(b1-4)Gal(b1-4)Glc
Summary of the method: as §1

[11] = molecular target: Gal(b1-3)GalNAc(b1-4)[Neu5Ac(a2-3)]Gal(b1-4)Glc
Summary of the method: as §1

[12] = molecular target: Gal(b1-3)GlcNAc
Summary of the method: as §1

[13] = molecular target: Gal(b1-3)GlcNAc(a1-3)Gal(b1-4)GlcNAc
Summary of the method: as §1

[14] = molecular target: Gal(b1-3)GlcNAc(a1-6)Gal(b1-4)GlcNAc
Summary of the method: as §1

[15] = molecular target: Gal(b1-3)GlcNAc(b1-2)Man
Summary of the method: as §1

[16] = molecular target: Gal(b1-3)GlcNAc(b1-2)Man(a1-3)[Gal(b1-3)GlcNAc(b1-2)Man(a1-6)]Man(b1-4)GlcNAc(b1-4)GlcNAc
Summary of the method: as §1

[17] = molecular target: Gal(b1-3)GlcNAc(b1-2)Man(a1-3)[Gal(b1-3)GlcNAc(b1-2)Man(a1-6)]Man(b1-4)GlcNAc(b1-4)[Fuc(a1-6)]GlcNAc
Summary of the method: as §1

[18] = molecular target: Gal(b1-3)GlcNAc(b1-2)Man(a1-3)[GlcNAc(b1-4)][Gal(b1-3)GlcNAc(b1-2)Man(a1-6)]Man(b1-4)GlcNAc(b1-4)GlcNAc
Summary of the method: as §1

[19] = molecular target: Gal(b1-3)GlcNAc(b1-2)[Gal(b1-3)GlcNAc(b1-6)]Man(a1-6)[Gal(b1-3)GlcNAc(b1-2)Man(a1-3)]Man(b1-4)GlcNAc(b1-4)GlcNAc
Summary of the method: as §1

[20] = molecular target: Gal(b1-3)GlcNAc(b1-3)Gal(b1-3)GlcNAc
Summary of the method: as §1

[21] = molecular target: Gal(b1-3)GlcNAc(b1-3)Gal(b1-4)Glc
Summary of the method: as §1

[22] = molecular target: Gal(b1-3)GlcNAc(b1-3)Gal(b1-4)GlcNAc
Summary of the method: as §1

[23] = molecular target: Gal(b1-3)GlcNAc(b1-3)Gal(b1-4)GlcNAc(b1-2)Man(a1-3)[Gal(b1-3)GlcNAc(b1-3)Gal(b1-4)GlcNAc(b1-2)Man(a1-6)]Man(b1-4)GlcNAc(b1-4)GlcNAc
Summary of the method: as §1

[24] = molecular target: Gal(b1-3)GlcNAc(b1-3)Gal(b1-4)GlcNAc(b1-2)[Gal(b1-3)GlcNAc(b1-3)Gal(b1-4)GlcNAc(b1-6)]Man(a1-6)[Gal(b1-3)GlcNAc(b1-3)Gal(b1-4)GlcNAc(b1-2)Man(a1-3)]Man(b1-4)GlcNAc(b1-4)[Fuc(a1-6)]GlcNAc
Summary of the method: as §1

[25] = molecular target: Gal(b1-3)GlcNAc(b1-3)Gal(b1-4)GlcNAc(b1-3)Gal(b1-4)GlcNAc(b1-2)[Gal(b1-3)GlcNAc(b1-3)Gal(b1-4)GlcNAc(b1-3)Gal(b1-4)GlcNAc(b1-6)]Man(a1-6)[Gal(b1-3)GlcNAc(b1-3)Gal(b1-4)GlcNAc(b1-3)Gal(b1-4)GlcNAc(b1-2)Man(a1-3)]Man(b1-4)GlcNAc(b1-4)[Fuc(a1-6)]GlcNAc
Summary of the method: as §1

[26] = molecular target: Gal(b1-3)GlcNAc(b1-3)Gal(b1-4)GlcNAc(b1-6)[Gal(b1-3)GlcNAc(b1-3)]Gal(b1-4)Glc
Summary of the method: as §1

[27] = molecular target: Gal(b1-3)GlcNAc(b1-3)Gal(b1-4)[Fuc(a1-3)]GlcNAc
Summary of the method: as §1

[28] = molecular target: Gal(b1-3)GlcNAc(b1-3)Gal(b1-4)[Fuc(a1-3)]GlcNAc(b1-6)[Gal(b1-3)GlcNAc(b1-3)]Gal(b1-4)Glc
Summary of the method: as §1

[29] = molecular target: Gal(b1-3)GlcNAc(b1-3)GalNAc
Summary of the method: as §1

[30] = molecular target: Gal(b1-3)GlcNAc(b1-6)Gal(b1-4)GlcNAc
Summary of the method: as §1

[31] = molecular target: Gal(b1-3)GlcNAc(b1-6)GalNAc
Summary of the method: as §1

[32] = molecular target: Gal(b1-3)GlcNAc(b1-6)[Gal(b1-3)]GalNAc
Summary of the method: as §1

[33] = molecular target: Gal(b1-3)GlcNAc6S
Summary of the method: as §1

[34] = molecular target: Gal(b1-3)[Fuc(a1-4)]GlcNAc
Summary of the method: as §1

[35] = molecular target: Gal(b1-3)[Fuc(a1-4)]GlcNAc(b1-2)Man
Summary of the method: as §1

[36] = molecular target: Gal(b1-3)[Fuc(a1-4)]GlcNAc(b1-2)Man(a1-3)[Gal(b1-3)[Fuc(a1-4)]GlcNAc(b1-2)Man(a1-6)]Man(b1-4)GlcNAc(b1-4)[Fuc(a1-6)]GlcNAc
Summary of the method: as §1

[37] = molecular target: Gal(b1-3)[Fuc(a1-4)]GlcNAc(b1-3)Gal(b1-3)[Fuc(a1-4)]GlcNAc
Summary of the method: as §1

[38] = molecular target: Gal(b1-3)[Fuc(a1-4)]GlcNAc(b1-3)Gal(b1-4)[Fuc(a1-3)]GlcNAc
Summary of the method: as §1

[39] = molecular target: Gal(b1-3)[Fuc(a1-4)]GlcNAc(b1-6)GalNAc
Summary of the method: as §1

[40] = molecular target: Gal(b1-3)[GlcNAc(b1-6)]GalNAc
Summary of the method: as §1

[41] = molecular target: Gal(b1-3)[Neu5Ac(a2-6)]GalNAc
Summary of the method: as §1

[42] = molecular target: Gal(b1-3)[Neu5Ac(a2-6)]GlcNAc(b1-4)Gal(b1-4)Glc
Summary of the method: as §1

[43] = molecular target: Gal(b1-3)[Neu5Ac(b2-6)]GalNAc
Summary of the method: as §1

[44] = molecular target: Gal(b1-4)Gal
Summary of the method: as §1

[45] = molecular target: Gal(b1-4)GalNAc(a1-3)[Fuc(a1-2)]Gal(b1-4)GlcNAc
Summary of the method: as §1

B1: CFEM-PPl (Pichia pastoris), F2QPV1 (protein)
chain: AVATPPACLLACAAEVVKESSDCDALNNIQCICENEGSAIHACLESTCPDGLSSTALQSFEDVCESVGTEANLDE
- glycan array binding signal (z-score) [1]: 0.268
- glycan array binding signal (z-score) [2]: -0.094
- glycan array binding signal (z-score) [3]: 8.35
- glycan array binding signal (z-score) [4]: 4.73
- glycan array binding signal (z-score) [5]: 4.58
- glycan array binding signal (z-score) [6]: 0.63
- glycan array binding signal (z-score) [7]: 1.2
- glycan array binding signal (z-score) [8]: 7.59
- glycan array binding signal (z-score) [9]: 0.7
- glycan array binding signal (z-score) [10]: 11.5
- glycan array binding signal (z-score) [11]: 1.48
- glycan array binding signal (z-score) [12]: -0.159
- glycan array binding signal (z-score) [13]: 0.567
- glycan array binding signal (z-score) [14]: 0
- glycan array binding signal (z-score) [15]: -0.094
- glycan array binding signal (z-score) [16]: 0.035
- glycan array binding signal (z-score) [17]: -0.192
- glycan array binding signal (z-score) [18]: -0.17
- glycan array binding signal (z-score) [19]: -0.033
- glycan array binding signal (z-score) [20]: -0.128
- glycan array binding signal (z-score) [21]: -0.184
- glycan array binding signal (z-score) [22]: -0.231
- glycan array binding signal (z-score) [23]: -0.202
- glycan array binding signal (z-score) [24]: 0.066
- glycan array binding signal (z-score) [25]: 0.051
- glycan array binding signal (z-score) [26]: 0.231
- glycan array binding signal (z-score) [27]: -0.287
- glycan array binding signal (z-score) [28]: -0.009
- glycan array binding signal (z-score) [29]: -0.197
- glycan array binding signal (z-score) [30]: 0.199
- glycan array binding signal (z-score) [31]: -0.048
- glycan array binding signal (z-score) [32]: 1.45
- glycan array binding signal (z-score) [33]: 0.224
- glycan array binding signal (z-score) [34]: -0.109
- glycan array binding signal (z-score) [35]: -0.114
- glycan array binding signal (z-score) [36]: -0.102
- glycan array binding signal (z-score) [37]: -0.173
- glycan array binding signal (z-score) [38]: -0.307
- glycan array binding signal (z-score) [39]: 0.18
- glycan array binding signal (z-score) [40]: 1.52
- glycan array binding signal (z-score) [41]: 8.06
- glycan array binding signal (z-score) [42]: -0.187
- glycan array binding signal (z-score) [43]: 0.483
- glycan array binding signal (z-score) [44]: -0.302
- glycan array binding signal (z-score) [45]: -0.168
